# Experimental data as given in the supplement of paper PMC9446081.
# Hit rate of the full screen: of about 39,000 compounds, about 220 (0.56%) showed activity. The list shows a part of the results.
# System: Escherichia coli K-12 BW25113
# Experiment: relative growth (OD600 normalised to plate interquartile mean) (fraction); higher = less growth inhibition, active = 0.2 or less
# Conditions: 50 µM; LB; incubation time: overnight (16-24 h)
# 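Further: static incubation at 37 °C against the wild-type strain, values averaged over two biological replicates.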
row,SMILES,relative growth
1,CCC(=O)n1ccc(C(=O)N2CCOCC2)n1,inactive: 1.05
2,Cc1cccc(O)c1,inactive: 0.977
3,COc1ccc(S(=O)(=O)Nc2ccc3c(c2)C(=O)N([C@H](C)CO)C[C@H](C)[C@H](CN(C)C(=O)Nc2c(C)noc2C)OCCCC[C@@H](C)O3)cc1,inactive: 0.973
4,C[C@H](CO)N1C[C@H](C)[C@H](CN(C)C(=O)Nc2ccc(C(F)(F)F)cc2)Oc2ccc(NC(=O)Cn3cnnn3)cc2CC1=O,inactive: 0.998
5,C[C@H](CO)N1C[C@H](C)[C@@H](CN(C)S(=O)(=O)c2cccs2)Oc2c(NC(=O)C3CCOCC3)cccc2C1=O,inactive: 1
6,CC(=O)ON1C(C)(C)C=C(C(N)=O)C1(C)C,inactive: 1.01
7,C[C@@H]1CCCCO[C@@H](CN(C)C(=O)Nc2ccc(C(F)(F)F)cc2)[C@@H](C)CN([C@H](C)CO)C(=O)c2cc(NC(=O)c3ccccc3)ccc2O1,inactive: 1.02
8,C[C@H](CO)N1C[C@H](C)[C@@H](CN(C)Cc2ccc(Oc3ccccc3)cc2)Oc2ccc(NC(=O)Cc3ccccc3)cc2C1=O,inactive: 1.04
9,C[C@H]1CN([C@@H](C)CO)C(=O)Cc2cc(NC(=O)CCN3CCOCC3)ccc2O[C@@H]1CN(C)S(=O)(=O)c1cccs1,inactive: 0.981
10,Nc1c(C(=O)O)cnc2nc(N3CCOCC3)nn12,inactive: 0.964
11,COc1ccc(S(=O)(=O)N(C)C[C@@H]2OCCCC[C@H](C)Oc3ccc(NC(=O)Nc4ccc(C(F)(F)F)cc4)cc3C(=O)N([C@H](C)CO)C[C@@H]2C)cc1,inactive: 1.05
12,COc1ccc(NC(=O)N(C)C[C@H]2Oc3ccc(NC(=O)C4CC4)cc3C(=O)N([C@@H](C)CO)C[C@@H]2C)cc1,inactive: 1.01
13,C[C@@H]1CCCCO[C@@H](CN(C)C(=O)NC2CCCCC2)[C@H](C)CN([C@H](C)CO)C(=O)c2cc(NS(=O)(=O)c3ccccc3)ccc2O1,inactive: 1.02
14,C[C@H]1CN([C@@H](C)CO)S(=O)(=O)c2ccc(C3=CCCC3)cc2O[C@H]1CN(C)C(=O)C1CCOCC1,inactive: 1.01
15,Cc1ccc(S(=O)(=O)Nc2ccc3c(c2)C(=O)N([C@H](C)CO)C[C@@H](C)[C@@H](CN(C)S(=O)(=O)c2ccc(C)cc2)OCCCC[C@@H](C)O3)cc1,inactive: 1.02
16,C[C@]12CC3CC(N)(C1)C[C@@](C)(C3)C2,inactive: 1.05
17,CNC[C@H]1OCCCC[C@@H](C)Oc2ccc(NC(=O)c3ccncc3)cc2C(=O)N([C@H](C)CO)C[C@@H]1C,inactive: 1.02
18,N=C(N)SCCc1cnc[nH]1,inactive: 1.03
19,Cc1noc(C)c1S(=O)(=O)Nc1ccc2c(c1)C(=O)N([C@@H](C)CO)C[C@H](C)[C@@H](CN(C)C(=O)Nc1ccc(C(F)(F)F)cc1)OCCCC[C@H](C)O2,inactive: 1.02
20,CCCNC(=O)[C@@H]1c2ccccc2C(=O)N(Cc2cc(F)cc(C(F)(F)F)c2)[C@H]1c1ccc(CO)cc1,inactive: 1

row,SMILES,relative growth
1,C[C@@H]1CCCCO[C@@H](CN(C)S(=O)(=O)c2cccs2)[C@@H](C)CN([C@@H](C)CO)C(=O)c2cc(NC(=O)Nc3ccc(C(F)(F)F)cc3)ccc2O1,inactive: 0.986
2,C[C@@H]1CCCCO[C@H](CN(C)C(=O)C2CCCCC2)[C@H](C)CN([C@H](C)CO)C(=O)c2cc(NC(=O)Nc3ccccc3)ccc2O1,inactive: 1.03
3,Cc1noc(C)c1S(=O)(=O)N(C)C[C@@H]1Oc2ccc(NS(=O)(=O)c3ccc(Cl)cc3)cc2C(=O)N([C@@H](C)CO)C[C@@H]1C,inactive: 0.993
4,C=CC[C@@H](CC(=O)N[C@@H](CO)Cc1ccccc1)C(=O)NC[C@@H](OC(=O)[C@@H](CC=C)Cc1ccc(F)cc1)c1ccccc1,inactive: 1.04
5,CN(C)CC(=O)N[C@H]1CC[C@@H](CCNC(=O)C2CC2)O[C@H]1CO,inactive: 0.984
6,C[C@@H]1CCCCO[C@@H](CN(C)C(=O)Nc2ccc3c(c2)OCO3)[C@H](C)CN([C@@H](C)CO)C(=O)c2cc(NC(=O)c3ccncc3)ccc2O1,inactive: 1.02
7,COc1ccc(S(=O)(=O)Nc2cccc3c2O[C@@H](CN(C)S(=O)(=O)c2ccccc2)[C@H](C)CN([C@@H](C)CO)C3=O)cc1,inactive: 1.01
8,Cc1ccc(S(=O)(=O)Nc2ccc3c(c2)C(=O)N([C@H](C)CO)C[C@H](C)[C@H](CN(C)C(=O)NC2CCCCC2)OCCCC[C@@H](C)O3)cc1,inactive: 0.991
9,CC(C)N1C(=O)[C@@]2(Cc3ccccc31)c1ccccc1C(=O)N(Cc1ccccc1Cl)[C@H]2c1ccc(CO)cc1,inactive: 0.94
10,COc1cccc(NC(=O)N(C)C[C@H]2Oc3cc(C#CC4(O)CCCC4)ccc3S(=O)(=O)N([C@@H](C)CO)C[C@@H]2C)c1,inactive: 1.01
11,Cc1cc(C)cc(C(=O)N(C)[C@H](Cc2ccc(-c3ccccc3)cc2)C(=O)N[C@@H](Cc2c[nH]c3ccccc23)C(=O)O)c1,inactive: 0.909
12,C[C@H]1CN([C@@H](C)CO)C(=O)Cc2cc(NC(=O)Cn3cnnn3)ccc2O[C@@H]1CN(C)C(=O)Nc1ccc(C(F)(F)F)cc1,inactive: 0.983
13,C[C@@H]1CN([C@@H](C)CO)S(=O)(=O)c2ccc(Br)cc2O[C@H]1CN(C)C(=O)c1ccc2c(c1)OCO2,inactive: 1.01
14,C[C@@H]1CN([C@H](C)CO)C(=O)Cc2cc(NS(=O)(=O)c3ccc(F)cc3)ccc2O[C@@H]1CN(C)C(=O)Nc1cccc2ccccc12,inactive: 1.03
15,C[C@@H]1CCCCO[C@H](CN(C)Cc2ccccc2)[C@@H](C)CN([C@H](C)CO)C(=O)c2cc(NC(=O)C3CCCCC3)ccc2O1,inactive: 0.995
16,C[C@H](CO)N1C[C@H](C)[C@@H](CN(C)S(=O)(=O)c2ccc(F)cc2)Oc2c(NS(=O)(=O)c3cccs3)cccc2C1=O,inactive: 0.974
17,C[C@@H]1CN([C@@H](C)CO)C(=O)c2cccc(NS(C)(=O)=O)c2O[C@@H]1CN(C)Cc1ccc2c(c1)OCO2,inactive: 1.01
18,C[C@@H]1CN([C@H](C)CO)C(=O)CCCn2nncc2CO[C@H]1CN(C)S(=O)(=O)c1ccc(Oc2ccccc2)cc1,inactive: 1.01
19,CO[C@H]1CN(C)C(=O)c2cc(NC(=O)Nc3cccc(F)c3)ccc2OC[C@H](C)N(C(=O)Nc2c(C)noc2C)C[C@H]1C,inactive: 0.98
20,CN(C)Cc1cn(CC[C@H]2CC[C@H](NS(=O)(=O)c3ccccc3)[C@H](CO)O2)nn1,inactive: 0.996

row,SMILES,relative growth
1,C[C@@H]1CCCCO[C@H](CN(C)S(=O)(=O)c2ccccc2)[C@@H](C)CN([C@@H](C)CO)C(=O)c2cc(NC(=O)c3ccccc3)ccc2O1,inactive: 1.03
2,C[C@@H]1CCCCO[C@@H](CN(C)C(=O)NC2CCCCC2)[C@@H](C)CN([C@@H](C)CO)C(=O)c2cc(NC(=O)CCC(F)(F)F)ccc2O1,inactive: 0.989
3,C[C@H](CO)N1C[C@H](C)[C@@H](CN(C)Cc2ccccc2)OCCCC[C@H](C)Oc2ccc(NC(=O)c3ccncc3)cc2C1=O,inactive: 0.995
4,C[C@@H]1CN([C@H](C)CO)C(=O)Cc2cc(NC(=O)C3CCCCC3)ccc2O[C@@H]1CN(C)Cc1ccc(-c2ccccc2)cc1,inactive: 1
5,COc1cc(OC)c2c(=O)c(O)c(-c3ccc(OC)c(OC)c3)oc2c1,inactive: 0.932
6,C[C@@H]1CN([C@@H](C)CO)C(=O)c2cc(NS(=O)(=O)c3ccc(F)cc3)ccc2O[C@H]1CN(C)C(=O)Nc1ccc(C(F)(F)F)cc1,inactive: 0.951
7,C=CCC[C@H](Cc1ccc(F)cc1)C(=O)O[C@@H](CNC(=O)[C@@H](CC=C)CC(=O)N[C@H](CO)Cc1ccccc1)c1ccccc1,inactive: 1.07
8,C[C@@H]1CN([C@H](C)CO)C(=O)c2cc(NS(=O)(=O)c3ccc(F)cc3)ccc2O[C@@H](C)CCCCO[C@H]1CN(C)CC1CCCCC1,inactive: 1.02
9,COc1c(O)cc2c(c1O)[C@@H]1O[C@H](CO)[C@@H](O)[C@H](O)[C@H]1OC2=O,inactive: 1.01
10,C[C@@H]1CN([C@@H](C)CO)S(=O)(=O)c2ccc(Br)cc2O[C@H]1CN(C)C(=O)Cc1cccnc1,inactive: 1.03
11,CC(=O)O[C@H]1C[C@@H](OC(C)=O)C(C)(C)[C@@H]2CC(=O)[C@]3(C)[C@H](CC[C@@]4(C)[C@H](C(=O)O)OC(=O)[C@H]5O[C@]543)[C@@]12C,inactive: 1.02
12,C[C@@H]1CN([C@H](C)CO)S(=O)(=O)c2ccc(Br)cc2O[C@@H]1CN(C)C(=O)NC1CCCC1,inactive: 0.989
13,CC(C)NC(=O)Nc1ccc2c(c1)C(=O)N([C@H](C)CO)C[C@H](C)[C@H](CN(C)CC1CCCCC1)OCCCC[C@H](C)O2,inactive: 0.926
14,C[C@H](CO)N1C[C@H](C)[C@@H](CN(C)C(=O)C2CCCCC2)OCCCC[C@H](C)Oc2ccc(NC(=O)Cc3ccccc3)cc2C1=O,inactive: 1.01
15,C[C@H](CO)N1C[C@H](C)[C@H](CN(C)S(=O)(=O)c2ccccc2)Oc2ncc(Br)cc2C1=O,inactive: 0.989
16,Cc1ccc(S(=O)(=O)Nc2ccc3c(c2)C(=O)N([C@H](C)CO)C[C@@H](C)[C@H](CN(C)Cc2ccc(C(F)(F)F)cc2)OCCCC[C@@H](C)O3)cc1,inactive: 1.07
17,O=C(Cn1ccnc1[N+](=O)[O-])NCCO,inactive: 0.963
18,COc1ccc(S(=O)(=O)N(C)C[C@H]2Oc3ncc(-c4ccncc4)cc3C(=O)N([C@@H](C)CO)C[C@H]2C)cc1,inactive: 0.984
19,CC(C)NC(=O)Nc1cccc2c1O[C@H](CN(C)Cc1ccc(C(=O)O)cc1)[C@@H](C)CN([C@H](C)CO)C2=O,inactive: 1.02
